In PubChem BioAssay AID894 (National Center for Advancing Translational Sciences (NCATS), 2007):
“And” between values parts separate entries of the source, which are not always exact repeats. Equal entries are not always repeated. Screen size: about 150,000 compounds; about 6,500 (4.3%) were called active. Another 12% or so got no clear call; they are omitted. Calls follow the shape of the dose curve; as a rule, active = well fitted inhibition curve with a large enough effect (not every such curve was filed as active); inconclusive = small, poorly fitted or top-dose-only effect, or another doubt; inactive = no such curve, though single readings can be large or run the other way. The entries are a selection whose mix differs from that of the whole data set. Some structures have more than one record in an assay (separate samples or runs), and their calls can disagree.

molecular target: 15-hydroxyprostaglandin dehydrogenase [NAD(+)] (Homo sapiens) (UniProt P15428); experiment: qHTS Assay for Inhibitors of HPGD (15-Hydroxyprostaglandin Dehydrogenase); details: purified HPGD, NADH fluorescence kinetic, PGE2 substrate; activity change, negative = inhibition: active compounds read low
Chain of UniProt P15428 (P15428 whole entry, looked up): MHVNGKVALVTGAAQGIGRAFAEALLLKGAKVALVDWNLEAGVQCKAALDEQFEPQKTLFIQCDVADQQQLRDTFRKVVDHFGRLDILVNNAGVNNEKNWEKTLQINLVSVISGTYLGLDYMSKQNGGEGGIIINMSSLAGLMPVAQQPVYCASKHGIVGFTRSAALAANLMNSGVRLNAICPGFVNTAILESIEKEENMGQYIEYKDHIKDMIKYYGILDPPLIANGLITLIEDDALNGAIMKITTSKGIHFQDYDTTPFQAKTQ
Method in brief: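 20 nM HPGD preincubated 15 min at room temperature with compound in 50 mM Tris-HCl pH 8, 0.01% Tween 20. Started with 1 mM NAD+ and 30 uM prostaglandin E2; NADH fluorescence (360/450 nm) read 5 times over 30-s intervals, last minus first.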
% is scaled to controls: 0 for no effect and ±100 for the full control effect; potency is read from the fitted curve at half-maximal effect.

| SMILES | Potency | activity change, negative = inhibition |
| --- | --- | --- |
| COc1cc(/C=C/C(=O)/C=C(O)/C=C/c2ccc(O)c(OC)c2)ccc1O | active: 22.4 µM |  |
| COc1cc2c(cc1OC)C(C)N(C(=O)c1cc3c(=O)oc4ccc(C)cc4c3s1)CC2 (stereo not given) |  | inactive: 368% |
| NC[C@@H]1O[C@H](C23CC4CC(CC(C4)C2)C3)Cc2c1ccc(O)c2O |  | inactive: -15.4% |
| C[C@@](Cc1ccc(O)c(O)c1)(NN)C(=O)O |  | inactive: -3.01% |
| CCN(CC)c1ccc(NC(=O)c2ccccc2Br)cc1S(=O)(=O)Nc1ccccc1OC | active: 2.24 µM |  |
| CCOC(=O)O[C@@H](C)OC(=O)[C@@H]1N2C(=O)[C@@H](NC(=O)[C@@H](N)c3ccccc3)[C@H]2SC1(C)C |  | inactive: -9.14% |
| COc1ccc(/C=C(\NC(=O)c2ccc(OC)c(OC)c2)C(=O)NCCc2c[nH]c3ccccc23)cc1 |  | inactive: -11.3% |
| O=C(c1ccc(F)cc1)C1CCN(CCn2c(=O)[nH]c3ccccc3c2=O)CC1 |  | inactive: -17% |
| C[C@H](C(=O)O)c1cccc(C(=O)c2ccccc2)c1 |  | inactive: -16.7% |
| Clc1ccc(COn2c(-c3ccc(Cl)cc3)nc3ccccc32)cc1 |  | inactive: 32% |
| COc1cccc([C@@H]2Oc3ccc(OC)cc3C(=O)[C@H]2OC(=O)NCc2ccc3c(c2)OCO3)c1 |  | inactive: -23.2% |
| N[C@@H](Cc1cc(I)c(Oc2ccc(O)c(I)c2)c(I)c1)C(=O)O |  | inactive: -10.3% |
| CCOC(=O)c1c(C)n(C)c2ccc(OCCN(C)C)cc12 |  | inactive: -3.75% |
| N#Cc1cc2nc(O)c(O)nc2cc1[N+](=O)[O-] |  | inactive: -25.7% |
| COc1cc(C(C)=O)ccc1Oc1ncnc2c1cnn2-c1ccc(F)cc1 | active: 15.8 µM |  |
| CC(=O)COc1ccc2c3c(c(=O)oc2c1)CCCC3 |  | inactive: 222% |
| Nc1nc2ncc(CNc3ccc(C(=O)N[C@@H](CCC(=O)O)C(=O)O)cc3)nc2c(=O)[nH]1 |  | inactive: -17.6% |
| Clc1ccc(-c2nc3ccccc3n2OCc2ccccc2)cc1 |  | inactive: 33.1% |
| O=C(CCCn1c(SCC(=O)c2ccc(O)c(O)c2)nc2ccccc2c1=O)NCC1CCCO1 (stereo not given) | active: 5.01 µM |  |
| Clc1cccc2c1Sc1ccccc1CC2N1CCNCC1 (stereo not given) |  | inactive: 44.5% |
| CC1(C)CC(=O)C(C(c2ccco2)C2C(=O)CC(C)(C)CC2=O)C(=O)C1 | active: 7.94 µM |  |
| O=C(COC(=O)c1ccc2c(c1Cl)C(=O)c1ccccc1C2=O)NC1CC1 | active: 7.94 µM |  |
| COc1ccc(-c2cc(=O)c3cc(C)ccc3[nH]2)cc1 |  | inactive: -21.4% |
| O=C(Nc1cccc2ccccc12)c1onc2c1CCCC2 |  | inactive: 37.7% |
| CC1=C(C(=O)O)N2C(=O)C(NC(=O)C(N)c3ccccc3)C2SC1 (stereo not given) |  | inactive: -10.2% |
| Brc1ccc(Cn2c(-c3ccc(Br)o3)nc3ccccc32)o1 |  | inactive: 98.1% |
| CC1(C)S[C@@H]2[C@H](NC(=O)[C@H](N)c3ccccc3)C(=O)N2[C@H]1C(=O)O |  | inactive: -10.5% and inactive: -3.19% and inactive: -23.7% |
| NC(Cc1cc(I)c(Oc2ccc(O)c(I)c2)c(I)c1)C(=O)O (stereo not given) |  | inactive: -24.5% |

| SMILES | Potency | activity change, negative = inhibition |
| --- | --- | --- |
| COCC(C)NC(=O)c1ccc(N(C)C)cc1 (stereo not given) | active: 22.4 µM |  |
| Cc1cc(=O)c2cc(Br)ccc2[nH]1 |  | inactive: 69.8% |
| O=C(O)c1ccccc1OP(=O)(O)O |  | inactive: -26.6% |
| Nc1cc(=O)[nH]c(=O)n1Cc1ccccc1 |  | inactive: 2.74% |
| N=C(N)SCc1ccc(Cl)cc1Cl |  | inactive: -9.37% |
| COC(=O)[C@@]1(Cc2ccc(OC)cc2)[C@H]2c3cc(C(=O)N4CCCC4)n(Cc4ccc(C)o4)c3C[C@H]2CN1C(=O)c1ccccc1 |  | inactive: -9.49% |
| Cc1cccc(NC(=O)c2ccc([N+](=O)[O-])o2)n1 |  | inactive: 35.6% |
| Cc1csc2ncc(C(=O)Nc3ccc4c(c3)OCCO4)c(=O)n12 |  | inactive: 99.5% |
| C[C@H](N)c1nnc(SCc2c(Cl)cccc2Cl)o1 | active: 31.6 µM |  |
| COc1ccc2nc3c(c(-c4ccccc4)c2c1)CCC3 |  | inactive: -21.9% |
| CC(C)OC(=O)C(C)(C)Oc1ccc(C(=O)c2ccc(Cl)cc2)cc1 |  | inactive: -9.69% and inactive: -28.4% and inactive: -23.2% |
| CCOc1ccc(C(=O)Nc2nnc(C(C)C)s2)cc1OCC | active: 28.2 µM |  |
| O=C(COC(=O)c1ccccc1Nc1ccc(SC(F)F)cc1)NCc1ccco1 | active: 14.1 µM |  |
| CCCCCC(O)c1cccc(OCc2ccc3ccccc3n2)c1 (stereo not given) |  | inactive: -26.2% and inactive: -5.68% |
| N#C/C(=C/c1cn(-c2ccccc2)nc1-c1cccc(S(=O)(=O)N2CCOCC2)c1)C(=O)NCc1ccco1 |  | inactive: 997% |
| Cc1ccc(/C=C(\C#N)C(=O)Nc2cccc3ncccc23)o1 | active: 39.8 µM |  |
| COC(=O)Cc1c(C)c2ccc(OC(=O)c3ccccc3)cc2oc1=O |  | inactive: 37.3% |
| COc1c(C)c2c(c(O)c1C/C=C(\C)CCC(=O)O)C(=O)OC2 |  | inactive: -24.7% |
| C=CCOC(=O)C1=C(C)NC(C)=C(C(=O)OCC=C)C1c1cn(-c2ccccc2)nc1-c1ccco1 |  | inactive: 32.8% |
| COc1ccc2cc(CN(CC3CCCO3)S(=O)(=O)c3ccccc3)c(=O)[nH]c2c1 (stereo not given) |  | inactive: 35.4% |
| Cc1cc(C)c2c(c1)C1C=CCC1C(c1ccc(S(=O)(=O)N3CCOCC3)cc1)N2 (stereo not given) |  | inactive: -13.3% |
| CC(C)NCC(O)c1ccc(O)c(O)c1 (stereo not given) |  | inactive: -5.4% [middle of 4 runs] |
| Cc1noc(NS(=O)(=O)c2ccc(N/C=C/C(=O)c3ccc4c(c3)OCO4)cc2)c1C |  | inactive: -22.1% |
| CC(=O)Nc1ccc(N(CC(O)Cn2c3ccccc3c3ccccc32)S(=O)(=O)c2ccc(C)cc2)cc1 (stereo not given) |  | inactive: 229% |
| CCn1c(C(=O)Nc2ccsc2C(=O)OC)cc2sc(Cl)cc21 |  | inactive: 724% |
| CCOC(=O)C=Nc1c(N)n(C)c(=O)n(C)c1=O |  | inactive: 54% |
| COc1ccc(Cl)cc1NC(=O)c1cc(-c2ccccc2O)n[nH]1 | active: 1.41 µM |  |
